From PubChem BioAssay AID504333 (National Center for Advancing Translational Sciences (NCATS), 2011)
Out of some 360,000 compounds screened, about 16,000 (4.4%) were called active. Inconclusive results, whose numbers are uncertain, are shown with a selection of clear calls. Calls come from the whole dose curve; as a rule, active = well fitted inhibition curve with a large enough effect; inconclusive = small, poorly fitted or top-dose-only effect; inactive = no such curve, though single readings can be large or run the other way. Potencies beside an inconclusive call are fits to weak or partial responses and may not hold up.

target: Bromodomain adjacent to zinc finger domain protein 2B (Homo sapiens) (UniProt Q9UIF8); test: qHTS Assay for Inhibitors of BAZ2B; conditions: AlphaScreen BAZ2B-H3K14Ac peptide displacement; series mostly up to 114 µM; note: nearly all actives have a fitted effect of over 60% in size
Method in brief: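 In this displacement format the biotinylated H3(5-23) peptide acetylated at Lys14 serves as ligand at 50 nM, with BAZ2B at 50 nM in PBS pH 7.4 containing 0.01% Tween-20. Donor and acceptor beads are 10 ug/mL final.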
Potency is the fitted concentration of half-maximal effect; tags give direction and shape of the fitted curve.

Chain of UniProt Q9UIF8 (Q9UIF8 whole entry, looked up, the tested form may be a part): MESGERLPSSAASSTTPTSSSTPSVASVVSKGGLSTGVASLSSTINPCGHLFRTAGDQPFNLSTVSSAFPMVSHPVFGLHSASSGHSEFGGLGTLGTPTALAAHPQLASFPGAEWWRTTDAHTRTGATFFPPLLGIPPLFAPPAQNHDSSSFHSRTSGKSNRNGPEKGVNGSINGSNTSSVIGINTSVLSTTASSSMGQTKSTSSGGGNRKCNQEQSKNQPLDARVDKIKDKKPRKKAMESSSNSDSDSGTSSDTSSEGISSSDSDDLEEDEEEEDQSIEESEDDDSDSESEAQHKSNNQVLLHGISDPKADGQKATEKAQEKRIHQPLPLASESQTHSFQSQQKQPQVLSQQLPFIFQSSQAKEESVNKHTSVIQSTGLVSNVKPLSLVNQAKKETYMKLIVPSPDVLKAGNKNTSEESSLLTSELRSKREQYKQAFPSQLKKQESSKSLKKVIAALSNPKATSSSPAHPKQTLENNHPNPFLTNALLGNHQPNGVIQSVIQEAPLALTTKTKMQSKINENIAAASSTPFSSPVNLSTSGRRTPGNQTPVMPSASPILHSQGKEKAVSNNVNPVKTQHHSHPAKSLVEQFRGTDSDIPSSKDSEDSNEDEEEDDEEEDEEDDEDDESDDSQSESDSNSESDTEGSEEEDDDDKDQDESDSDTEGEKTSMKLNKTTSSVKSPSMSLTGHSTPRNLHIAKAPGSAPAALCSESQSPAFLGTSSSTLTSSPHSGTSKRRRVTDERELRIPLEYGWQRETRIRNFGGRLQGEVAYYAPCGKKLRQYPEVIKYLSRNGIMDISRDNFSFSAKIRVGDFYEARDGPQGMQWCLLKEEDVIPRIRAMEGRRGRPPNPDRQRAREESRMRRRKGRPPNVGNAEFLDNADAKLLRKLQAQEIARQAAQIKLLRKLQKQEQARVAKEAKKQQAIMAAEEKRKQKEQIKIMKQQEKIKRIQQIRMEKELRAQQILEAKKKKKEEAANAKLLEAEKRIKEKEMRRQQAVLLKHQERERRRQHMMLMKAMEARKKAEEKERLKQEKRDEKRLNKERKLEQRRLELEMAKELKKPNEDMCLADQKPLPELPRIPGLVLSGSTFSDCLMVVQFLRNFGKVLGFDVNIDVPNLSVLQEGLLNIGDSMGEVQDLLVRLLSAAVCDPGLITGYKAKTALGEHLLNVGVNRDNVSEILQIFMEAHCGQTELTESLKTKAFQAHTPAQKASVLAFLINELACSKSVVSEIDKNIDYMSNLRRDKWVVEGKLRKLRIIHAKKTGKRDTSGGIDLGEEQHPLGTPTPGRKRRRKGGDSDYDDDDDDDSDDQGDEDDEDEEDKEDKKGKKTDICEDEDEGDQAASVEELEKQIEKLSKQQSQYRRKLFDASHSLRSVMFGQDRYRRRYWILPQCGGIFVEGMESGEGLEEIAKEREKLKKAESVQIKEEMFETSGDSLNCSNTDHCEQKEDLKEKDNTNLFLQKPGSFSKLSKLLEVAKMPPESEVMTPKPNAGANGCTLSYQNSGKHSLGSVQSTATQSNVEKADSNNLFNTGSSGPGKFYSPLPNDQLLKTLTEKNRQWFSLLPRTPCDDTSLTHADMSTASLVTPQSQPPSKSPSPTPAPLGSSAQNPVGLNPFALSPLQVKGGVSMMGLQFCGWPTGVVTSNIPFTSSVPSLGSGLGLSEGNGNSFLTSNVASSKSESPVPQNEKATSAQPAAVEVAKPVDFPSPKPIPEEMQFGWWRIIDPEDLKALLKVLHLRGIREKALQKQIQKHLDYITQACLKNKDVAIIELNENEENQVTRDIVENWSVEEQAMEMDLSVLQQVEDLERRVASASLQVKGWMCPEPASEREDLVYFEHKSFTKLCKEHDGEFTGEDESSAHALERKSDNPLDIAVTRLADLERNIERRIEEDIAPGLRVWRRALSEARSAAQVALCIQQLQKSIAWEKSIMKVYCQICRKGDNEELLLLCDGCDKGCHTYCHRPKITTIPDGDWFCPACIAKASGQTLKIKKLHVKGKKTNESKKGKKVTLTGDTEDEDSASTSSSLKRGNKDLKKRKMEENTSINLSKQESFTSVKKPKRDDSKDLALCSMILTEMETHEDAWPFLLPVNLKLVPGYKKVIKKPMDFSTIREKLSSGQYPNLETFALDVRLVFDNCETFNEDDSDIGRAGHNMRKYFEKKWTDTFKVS

| SMILES | Potency |
| --- | --- |
| Cc1nc(NC(=O)c2ccc(OCC(C)C)cc2)sc1Cc1ccc2c(c1)OCO2 | inconclusive: 28.2 µM [inhibitor, full curve] |
| O=C(CN1CC(=O)Oc2ccccc21)OCC(=O)c1ccccc1 | active: 12.6 µM |
| Cc1cc(OC(=O)c2ccccc2[N+](=O)[O-])c([N+](=O)[O-])c(=O)[nH]1 | inconclusive: 100 µM [inhibitor, single point] |
| COc1ccccc1C1/C(=C(/O)c2ccc(Cl)cc2)C(=O)C(=O)N1CCN1CCOCC1 (stereo unspecified) | inconclusive: 89.1 µM [inhibitor, single point] |
| O=C(Nc1nc(-c2ccc3c(c2)OCCO3)cs1)C1CCCC1 | inconclusive: 50.1 µM [inhibitor, partial curve] |
| O=C(CNc1ccc(F)cc1F)NC(=O)NCc1ccco1 | inconclusive: 79.4 µM [inhibitor, single point] |
| CCOc1cc(C#N)c(-n2nnc3c(sc4nc(C)cc(C)c43)c2=O)cc1OCC | inactive |
| CCOC(=O)c1scc(-c2ccc(C)cc2)c1S(=O)(=O)Nc1cc(OC)ccc1OC | inconclusive: 31.6 µM [inhibitor, full curve] |
| COc1ccc2[nH]c3c(=O)n(Cc4ccc(C(=O)N5CCCCCC5)cc4)c(=S)[nH]c3c2c1 | inactive |
| Nc1ccc(Nc2ccccc2)c(Cl)c1 | active: 50.1 µM |
| COc1ccc(OC)c(NC(=O)Cn2cccc2)c1 | inconclusive: 50.1 µM [inhibitor, partial curve] |
| CCOc1ccc(NC(=O)CN(C)C(=O)C2CC(=O)N(CCc3ccccc3)C2)cc1OCC (stereo unspecified) | inactive |
| O=C(Cn1c(=O)oc2cc(S(=O)(=O)N3CCCC3)ccc21)NC1CCCCC1 | inconclusive: 89.1 µM [inhibitor, single point] |
| Nc1ccc(Nc2nc(-c3ccncc3)cs2)cc1 | inconclusive: 50.1 µM [inhibitor, partial curve] |
| CC1CCN(CCCCOc2cccc(Br)c2)CC1 | inconclusive: 89.1 µM [inhibitor, single point] |
| Cc1csc(SCC(=O)NC2CCC(C)CC2)n1 (stereo unspecified) | inactive |
| CCSc1nnc2c(n1)OC(c1cc(OC)c(OC)c(OC)c1)Nc1ccccc1-2 (stereo unspecified) | inactive |
| CCCN(C(=O)CCOc1ccc(C(C)(C)C)cc1)c1c(N)n(Cc2ccccc2)c(=O)[nH]c1=O | inactive |
| CC(C)c1ccc(NC(=O)C2CCN(S(=O)(=O)c3cccc4nonc34)CC2)cc1 | inactive |
| COc1ccc(/C=C(/NC(=O)c2ccccc2OC)C(=O)Nc2ccc(C(=O)O)cc2)cc1 | inconclusive: 20 µM [inhibitor, full curve] |
| CCOC(=O)c1c(NC(=O)c2nc(SCC)ncc2Cl)sc2c1CCCC2 | inactive |
| NC(=O)c1cc([N+](=O)[O-])ccc1NCc1ccc(O)cc1 | inconclusive: 89.1 µM [inhibitor, single point] |
| CNc1cc(NS(=O)(=O)c2ccc(N)cc2)nc(NC)n1 | active: 50.1 µM |

| SMILES | Potency |
| --- | --- |
| CC1(C)C2CCC1(CS(=O)(=O)N1CCN(c3ccc(F)cc3)CC1)C(=O)C2 (stereo unspecified) | inconclusive: 89.1 µM [inhibitor, single point] |
| Cc1ccc(S(=O)(=O)N2CCN(C)CC2)c(C)c1N(C)S(=O)(=O)c1ccc(Cl)cc1 | inconclusive: 100 µM [inhibitor, single point] |
| O=C(Nc1cccc(F)c1)c1ccccc1-c1ccccc1 | inactive |
| COc1ccc(-c2ccc(CCC(=O)O)n2C(C)C)cc1 | inconclusive: 79.4 µM [inhibitor, single point] |
| CC(=O)C(Sc1nc(N(C)C)nc(N(C)C)n1)C(=O)Nc1ccccc1 (stereo unspecified) | inactive |
| CCC1=Nc2cc(C(=O)NCCN3CCOCC3)ccc2Sc2ccc(Br)cc21 | inconclusive: 31.6 µM [inhibitor, partial curve] |
| Cn1c(Cn2nnc3ccccc32)nnc1SCC(=O)c1ccc(F)cc1 | inactive |
| COC(=O)/C(=N/Nc1ccc(C)cc1)N1CCCc2ccccc21 | inconclusive: 44.7 µM [inhibitor, partial curve] |
| O=C(Nc1ccc(F)cc1)c1cccc(N2C(=O)C3C4C=CC(C5CC45)C3C2=O)c1 (stereo unspecified) | inactive |
| CCN(CC)S(=O)(=O)c1ccc(C(=O)C(C#N)c2ccccn2)cc1 (stereo unspecified) | inconclusive: 100 µM [inhibitor, single point] |
| COc1ccccc1NS(=O)(=O)c1cc(C(=O)NCCN2CCOCC2)ccc1Cl | inconclusive: 89.1 µM [inhibitor, single point] |
| O=C(CCCN1C(=O)/C(=C/c2cccs2)SC1=S)NNC(=O)c1ccccc1O | active: 56.2 µM |
| COc1ccc2c(Cl)c(C(=O)NCCCn3ccnc3)sc2c1Cl | inconclusive: 89.1 µM [inhibitor, single point] |
| Cc1c(NC(=O)C(CC(=O)O)NCc2ccco2)c(=O)n(-c2ccccc2)n1C (stereo unspecified) | active: 50.1 µM |
| COc1ccc(C)cc1Nc1n[n+](-c2ccccc2)c(-c2cc(OC)c(OC)cc2Br)s1 | active: 50.1 µM |
| Cc1cc(C(=O)N2CCCC(Nc3ccccc3)C2)c2ccc(F)cc2n1 (stereo unspecified) | inconclusive: 89.1 µM [inhibitor, single point] |
| CC(C)c1ccc(CNc2ccc3c(c2)ncn3C)cc1 | active: 39.8 µM |
| Cc1ccc(-c2csc3nc[nH]c(=S)c23)cc1C | inconclusive: 79.4 µM [inhibitor, single point] |
| COc1ccc(CCNC(=S)NC(=O)c2ccc(Br)cc2)cc1OC | active: 31.6 µM |
| O=C1C2C3C=CC(C4CC34)C2C(=O)N1/N=C/c1ccc(-c2ccc(F)cc2[N+](=O)[O-])o1 (stereo unspecified) | inconclusive: 35.5 µM [inhibitor, partial curve] |
| Cc1ccc(-c2nc(-c3ccccc3)no2)cc1 | inconclusive: 100 µM [inhibitor, single point] |
| CCn1c(CC(=O)Nc2cccc(Cl)c2Cl)nnc1SCCOc1ccc(OC)cc1 | inactive |
| CC(C)c1cc(Br)ccc1OCCCN1C(=O)NC(C)(C)C1=O | inconclusive: 3.55 µM [inhibitor, partial curve, poor fit] |
